Data as given in PMC11995724, “Antibiotic target discovery by integrated phenotypic and activity-based profiling of electrophilic fragments” (Cell chemical biology, 2025).
The whole screen tested about 3,200 compounds, of which about 75 (2%) showed an effect of 50% or more. The list shows a part of the results.

Test system: T1, S. aureus MSSA476
T1 construct: MSSA476
Design: species or system S. aureus MSSA476 (TSB) or V. cholerae SAD30 (LB); 384-well bacterial growth screen at 25 uM, OD600 relative to DMSO control
Settings: relative growth, OD600, TSB; 25 µM; inhibitor

| SMILES | % of control remaining [%] |
| --- | --- |
| N#CC(=Cc1cccc(O)c1)C(=O)NCc1ccco1 [9-F21, 2-cyano-N-[(furan-2-yl)methyl]-3-(3-hydroxyphenyl)prop-2-enamide] | 111.161 |
| NC(=O)c1ccc(NC(=O)CCl)cc1 [4-P04, 4-(2-chloroacetamido)benzamide] | 95.2835 |
| C=CC(=O)Nc1ccc(N(C)S(=O)(=O)CC)cc1 [3-H06, N-[4-(N-methylethanesulfonamido)phenyl]prop-2-enamide] | 95.0805 |
| C=CC(=O)NCCc1nnc(C(C)C)s1 [2-L05, N-{2-[5-(propan-2-yl)-1,3,4-thiadiazol-2-yl]ethyl}prop-2-enamide] | 123.238 |
| CC(Cl)C(=O)NCc1nnc2n1-c1ccccc1CC2 (stereo not drawn) [6-N14, 2-chloro-N-({4H,5H-[1,2,4]triazolo[4,3-a]quinolin-1-yl}methyl)propanamide] | 92.5366 |
| CC(Cl)C(=O)Nc1ccc2c(c1)CCC2 (stereo not drawn) [5-C19, 2-chloro-N-(2,3-dihydro-1H-inden-5-yl)propanamide] | 116.94 |
| CN(C1CCCCC1)S(=O)(=O)c1ccc(NC(=O)CCl)cc1 [5-E03, 2-chloro-N-{4-[cyclohexyl(methyl)sulfamoyl]phenyl}acetamide] | 100.911 |
| CC(Cl)C(=O)Nc1cccc(S(=O)(=O)N2CCCCC2)c1 (stereo not drawn) [5-L12, 2-chloro-N-[3-(piperidine-1-sulfonyl)phenyl]propanamide] | 97.6321 |
| CC(=O)c1ccccc1NC(=O)C(C)Cl (stereo not drawn) [5-O19, N-(2-acetylphenyl)-2-chloropropanamide] | 103.825 |
| C=CC(=O)Nc1cccc(OC(C)(C)C)c1 [3-G14, N-[3-(tert-butoxy)phenyl]prop-2-enamide] | 91.2495 |
| CC(=O)c1c(C)[nH]c(C(=O)C(C)Cl)c1C (stereo not drawn) [10-P22, 1-(4-acetyl-3,5-dimethyl-1H-pyrrol-2-yl)-2-chloropropan-1-one] | 113.125 |
| N#CC(=Cc1cc2cc(F)ccc2o1)C(=O)NC(N)=O [8-C22, {2-cyano-2-[(5-fluoro-1-benzofuran-2-yl)methylidene]acetyl}urea] | 73.6929 |
| N#CC(=Cc1ccsc1)C(=O)NCc1ccco1 [9-H22, 2-cyano-N-[(furan-2-yl)methyl]-3-(thiophen-3-yl)prop-2-enamide] | 88.6891 |
| C=CC(=O)N1CCC(C(=O)N(C)C(C)c2sc(CC)nc2C)CC1 (stereo not drawn) [2-P04, N-[1-(2-ethyl-4-methyl-1,3-thiazol-5-yl)ethyl]-N-methyl-1-(prop-2-enoyl)piperidine-4-carboxamide] | 93.6466 |
| CC(Cl)C(=O)Nc1ccccc1 (stereo not drawn) [5-F10, 2-chloro-N-phenylpropanamide] | 97.2678 |
| CC(Cl)C(=O)Nc1cccc2ccccc12 (stereo not drawn) [5-N12, 2-chloro-N-(naphthalen-1-yl)propanamide] | 98.3607 |
| Cc1ccc(C=C(C#N)C(=O)NC2CCCCC2)cc1C [8-G10, 2-cyano-N-cyclohexyl-3-(3,4-dimethylphenyl)prop-2-enamide] | 108.216 |
| CC(=O)Nc1ccc(C2=NN(C(=O)CCl)C(c3ccco3)C2)cc1 (stereo not drawn) [4-G22, N-{4-[1-(2-chloroacetyl)-5-(furan-2-yl)-4,5-dihydro-1H-pyrazol-3-yl]phenyl}acetamide] | 99.8571 |
| O=C(CCl)NC1CCN(C(=O)C2COc3ccccc3O2)CC1 (stereo not drawn) [5-C09, 2-chloro-N-[1-(2,3-dihydro-1,4-benzodioxine-2-carbonyl)piperidin-4-yl]acetamide] | 129.69 |
| C=CC(=O)N1CC(C(N)=O)Oc2ccccc21 (stereo not drawn) [1-A09, 4-(prop-2-enoyl)-3,4-dihydro-2H-1,4-benzoxazine-2-carboxamide] | 119.56 |
| C=CC(=O)NCc1c(C(F)(F)F)coc1C [1-E17, N-{[2-methyl-4-(trifluoromethyl)furan-3-yl]methyl}prop-2-enamide] | 104.44 |
| N#CC(=Cc1ccc(O)c([N+](=O)[O-])c1)C(=O)Nc1ccccc1C(=O)O [9-G10, 2-[2-cyano-3-(4-hydroxy-3-nitrophenyl)prop-2-enamido]benzoic acid] | 87.191 |
| CC(Cl)C(=O)N[C@H]1C[C@H](Cn2cncn2)C1 (stereo partly drawn) [6-D20, 2-chloro-N-[(1r,3r)-3-[(1H-1,2,4-triazol-1-yl)methyl]cyclobutyl]propanamide] | 115.756 |
| C=CC(=O)NC(C)c1ccc(S(=O)(=O)N(C)C)cc1 (stereo not drawn) [3-A20, N-{1-[4-(dimethylsulfamoyl)phenyl]ethyl}prop-2-enamide] | 127.122 |
| O=C1C=CC(=O)N1CCc1ccccc1F [10-G03, 1-[2-(2-fluorophenyl)ethyl]-2,5-dihydro-1H-pyrrole-2,5-dione] | 4.375 |
| CC(C)Cn1c(N)c(C(=O)CCl)c(=O)[nH]c1=O [10-F08, 6-amino-5-(2-chloroacetyl)-1-(2-methylpropyl)-1,2,3,4-tetrahydropyrimidine-2,4-dione] | 115.625 |
| O=C(CCl)NC(CC1CC1)c1ccc(Cl)cn1 (stereo not drawn) [6-F19, 2-chloro-N-[1-(5-chloropyridin-2-yl)-2-cyclopropylethyl]acetamide] | 93.561 |
| Cc1cccc(C)c1NC(=O)C(C#N)=Cc1ccc(OC(F)F)cc1 [8-A11, 2-cyano-3-[4-(difluoromethoxy)phenyl]-N-(2,6-dimethylphenyl)prop-2-enamide] | 92.9461 |
| CC(Cl)C(=O)NCC1CN(S(C)(=O)=O)C1 (stereo not drawn) [7-C04, 2-chloro-N-[(1-methanesulfonylazetidin-3-yl)methyl]propanamide] | 101.099 |
| O=C(CCl)NCc1cc(C(F)F)no1 [6-H08, 2-chloro-N-{[3-(difluoromethyl)-1,2-oxazol-5-yl]methyl}acetamide] | 107.561 |
